Hit rate of the full screen: of about 310,000 compounds, about 2,200 (0.71%) showed an effect of 50% or more. Effects have a minus sign here. The list shows a part of the results.

human ether-à-go-go-related gene (hERG) potassium channel, sequence (Q12809 whole entry, looked up): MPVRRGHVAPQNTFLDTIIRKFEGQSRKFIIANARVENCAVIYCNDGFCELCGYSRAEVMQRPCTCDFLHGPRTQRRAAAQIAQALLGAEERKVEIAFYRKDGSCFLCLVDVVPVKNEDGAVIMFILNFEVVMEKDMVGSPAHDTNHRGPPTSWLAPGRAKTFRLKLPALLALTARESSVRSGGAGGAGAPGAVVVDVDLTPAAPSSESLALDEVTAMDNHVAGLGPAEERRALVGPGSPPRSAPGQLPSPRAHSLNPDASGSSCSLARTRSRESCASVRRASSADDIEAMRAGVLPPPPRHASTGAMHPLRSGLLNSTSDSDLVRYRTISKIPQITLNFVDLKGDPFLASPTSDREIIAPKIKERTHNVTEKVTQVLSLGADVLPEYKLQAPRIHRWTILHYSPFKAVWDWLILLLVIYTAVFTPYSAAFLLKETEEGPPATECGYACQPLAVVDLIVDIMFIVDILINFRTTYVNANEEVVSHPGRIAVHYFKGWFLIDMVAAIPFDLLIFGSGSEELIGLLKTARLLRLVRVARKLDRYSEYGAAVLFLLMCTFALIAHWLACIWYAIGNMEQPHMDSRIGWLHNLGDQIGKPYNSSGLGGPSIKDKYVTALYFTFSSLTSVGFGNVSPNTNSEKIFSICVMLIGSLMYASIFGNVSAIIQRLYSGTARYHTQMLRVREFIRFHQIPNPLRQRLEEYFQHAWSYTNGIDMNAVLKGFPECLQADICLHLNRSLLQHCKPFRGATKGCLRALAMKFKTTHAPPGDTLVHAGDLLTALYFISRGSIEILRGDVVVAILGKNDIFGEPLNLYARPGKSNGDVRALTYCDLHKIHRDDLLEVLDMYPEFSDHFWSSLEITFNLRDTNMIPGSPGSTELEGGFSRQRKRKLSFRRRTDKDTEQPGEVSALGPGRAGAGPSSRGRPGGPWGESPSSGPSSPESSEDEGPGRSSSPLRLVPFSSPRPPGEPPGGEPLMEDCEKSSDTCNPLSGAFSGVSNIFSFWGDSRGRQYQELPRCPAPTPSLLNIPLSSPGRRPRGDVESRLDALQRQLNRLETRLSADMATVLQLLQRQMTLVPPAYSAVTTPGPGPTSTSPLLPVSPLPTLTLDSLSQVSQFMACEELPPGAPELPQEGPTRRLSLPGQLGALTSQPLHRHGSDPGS

This test addresses human ether-à-go-go-related gene (hERG) potassium channel (human, UniProt Q12809). Nature of the test: primary screen, population patch clamp on CHO cells stably expressing hERG.
With `COc1cccc(Cn2c(=O)sc3ccccc3c2=O)c1`, the “hERG current change (%, negative = inhibition) at 1uM” value was 12%.
For `CC(C)Cn1cnc2c1c(=O)[nH]c(=O)n2Cc1ccccc1`, the “hERG current change (%, negative = inhibition) at 1uM” value turned out to be 13%.
On to `COc1ccc(NC(=S)Nn2cnnc2)c(OC)c1`, for which the “hERG current change (%, negative = inhibition) at 1uM” value was 12.3%.
As for `O=C(CSc1nc(-c2ccccc2)cc(=O)[nH]1)Nc1ccc(F)c(F)c1`, the “hERG current change (%, negative = inhibition) at 1uM” value was found to be 12.9%.
In the case of `Cc1cc(-c2ccc(Br)cc2)n[nH]1`, the “hERG current change (%, negative = inhibition) at 1uM” value was 0.796%.
For the compound `CC(C)CN(CC(C)C)C(=O)CS(=O)(=O)Cc1ccccc1`, the “hERG current change (%, negative = inhibition) at 1uM” value is listed as 10%.
On to `COc1ccc(Cl)cc1-c1nc(SCC(=O)N(C)CCC#N)n[nH]1`, for which the “hERG current change (%, negative = inhibition) at 1uM” value came to 9.76%.
As for `COC(=O)C1=C(C)NC(C)=C(C(=O)OC)C1c1ccc(-c2cccc([N+](=O)[O-])c2)o1`, the figure is 17%.
Consider `CCn1c(CCc2ccccc2)nnc1SCC(N)=O`, for which the “hERG current change (%, negative = inhibition) at 1uM” value is 13.3%.
For `O=C1OC(N2CCN(C(=O)c3ccco3)CC2)c2ccccc21` (centres unmarked), the “hERG current change (%, negative = inhibition) at 1uM” value is 9.25%.
With `CCCSc1nc(C)cc(C)c1S(C)(=O)=O`, the “hERG current change (%, negative = inhibition) at 1uM” value amounted to 15.1%.
On to `COCCn1c(C)cc(/C=C2/NC(=O)N(Cc3ccc(C)cc3)C2=O)c1C`, for which the “hERG current change (%, negative = inhibition) at 1uM” value is given as 15.1%.
For `CC(=O)c1c(C)[nH]c(C(=O)C(C)Sc2nnc(NC3CC3)s2)c1C` (centres unmarked), the “hERG current change (%, negative = inhibition) at 1uM” value is reported as -0.0946%.
As for `C=CC(C)(C)c1[nH]cnc1/C=C1\NC(=O)C(C(C)C)NC1=O` (centres unmarked), the figure is 7.83%; as for `COc1ccc(NC(=O)C2C(c3ccccc3)C2(Cl)Cl)c(OC)c1` (centres unmarked), 11.3%.
Consider `O=C(CCC1CCCN(Cc2ccc3c(c2)OCCO3)C1)NCc1ccccc1F` (centres unmarked), for which the “hERG current change (%, negative = inhibition) at 1uM” value came out at 9.98%.
As for `COc1ccc(OC)c(NC(=O)C2CC(C)=C(C)CC2C(=O)O)c1` (centres unmarked), the “hERG current change (%, negative = inhibition) at 1uM” value turned out to be 8.14%.
As for `Cc1onc(-c2c(Cl)cccc2Cl)c1C(=O)c1c[nH]c(C(=O)NCC2CCCO2)c1` (centres unmarked), the “hERG current change (%, negative = inhibition) at 1uM” value came to 13.4%.
In the case of `CCOc1ccc(N=Cc2c(C)[nH]n(-c3nc4ccccc4[nH]3)c2=O)cc1`, the “hERG current change (%, negative = inhibition) at 1uM” value was determined as 5.73%.
Consider `CC(=O)c1cccc(NC(=O)CN2C(=O)COc3ccc(S(=O)(=O)N4CCOCC4)cc32)c1`, for which the “hERG current change (%, negative = inhibition) at 1uM” value was found to be 16.7%.
In the case of `CCC(CC)NC(=O)c1ccc(Cl)cc1`, the “hERG current change (%, negative = inhibition) at 1uM” value came out at 20.1%.
As for `O=C(O/N=C1\CCCc2ccccc21)C1CC1`, the figure is 12%.
For the compound `O=C(CCc1nnc(Cc2ccc3c(c2)OCO3)o1)N(CC1CCC1)CC1CCCO1` (centres unmarked), the “hERG current change (%, negative = inhibition) at 1uM” value amounted to 9.77%.
As for `CC(=O)c1c(N)nc2n(c1=O)CCCCC2`, the figure is 9.28%.
As for `Cc1cc(NC(=O)CSc2nc3sc(C)c(C)c3c(=O)n2C2CCCC2)no1`, the figure is 12.5%; as for `COc1ccc(OCCC(=O)NC2CCCCC2)cc1`, 14.2%; as for `COc1ccccc1/C=C/C=N/NC(=O)CN1CCN(S(=O)(=O)c2ccc(C)cc2)CC1`, -3.2%.
On to `CN(CC(=O)Nc1ccccc1Br)C(=O)CNC(=O)c1ccc(Oc2ccccc2)cc1`, for which the “hERG current change (%, negative = inhibition) at 1uM” value was found to be 9.1%.
Consider `C=CCNc1nc(N2CCCC2)nc2ccccc12`, for which the “hERG current change (%, negative = inhibition) at 1uM” value is listed as -66%.
For the compound `O=C(O)c1ccccc1Sc1ncnc2sc3c(c12)CCC3`, the “hERG current change (%, negative = inhibition) at 1uM” value is given as -2.14%.
`COC(=O)C(CC(C)C)NC(=O)c1ccc([N+](=O)[O-])c(C)c1` (centres unmarked): the “hERG current change (%, negative = inhibition) at 1uM” value came out at 8.28%.
For the compound `O=S1(=O)CC/C(=N\Nc2ccccc2)c2ccsc21`, the “hERG current change (%, negative = inhibition) at 1uM” value came to 15.4%.
`Cc1csc(NC(=O)CSc2nnc(-c3ccccc3)o2)n1`: the “hERG current change (%, negative = inhibition) at 1uM” value is 6.57%.
For `CCCNC(=O)C(Cc1cccc(OC)c1)NC(=O)c1ccc(C#N)cc1` (centres unmarked), the “hERG current change (%, negative = inhibition) at 1uM” value is 6.05%.
Take `NC(=O)C(c1ccccc1)C1CCCC1` (centres unmarked): the “hERG current change (%, negative = inhibition) at 1uM” value was 16.6%.
As for `O=C(NCCc1ccc(C(F)(F)F)cc1)C1CC(=O)N(c2ccc3c(c2)OCCO3)C1` (centres unmarked), the figure is 3.54%.
In the case of `O=C(O)c1nccnc1C(=O)Nc1ccccc1N1CCOCC1`, the “hERG current change (%, negative = inhibition) at 1uM” value was -3.19%.
Turning to `CC1CCN(C(=O)CN(Cc2ccc(Cl)cc2)S(C)(=O)=O)CC1`, the “hERG current change (%, negative = inhibition) at 1uM” value was found to be 13.1%.
As for `CC(C)CCn1c(Br)nc2c1c(=O)n(CC(N)=O)c(=O)n2C`, the “hERG current change (%, negative = inhibition) at 1uM” value was 15.1%.
For the compound `CC(=O)N/C(=N/c1nc(C)cc(C)n1)Nc1cc(C)cc(C)c1`, the “hERG current change (%, negative = inhibition) at 1uM” value is -1.18%.
In the case of `CCOc1ccc2nc(/N=C/c3c(C)[nH]n(-c4ccc(C)cc4)c3=O)sc2c1`, the “hERG current change (%, negative = inhibition) at 1uM” value is given as 7.53%.
The value for `CCCCn1c(NCCN(C)C)nc2c1c(=O)[nH]c(=O)n2C` was 2.26%; that for `Brc1ccc(OCc2cn3ccccc3n2)cc1` was -1.3%; that for `Cc1sc2ncnc(SCC(=O)NC(C)C(C)C)c2c1C` (centres unmarked) was 11.4%.
On to `Cc1cccc(NC(=S)N2CCC(c3nc4ccccc4s3)CC2)c1`, for which the “hERG current change (%, negative = inhibition) at 1uM” value is recorded as 9.69%.
As for `Cn1nnc2ccccc2c1=O`, the figure is 12.6%.
For the compound `Cc1cc(C)nc(SCc2ccc(C(=O)N/N=C3\CCCC(=O)C3)cc2)n1`, the “hERG current change (%, negative = inhibition) at 1uM” value is listed as 26.6%.
With `COC(=O)c1ccccc1CCC(C)=O`, the “hERG current change (%, negative = inhibition) at 1uM” value is 10.1%.
On to `CC(C)OC(=O)CSc1nc(Cc2cccs2)nc2ccccc12`, for which the “hERG current change (%, negative = inhibition) at 1uM” value stood at 5.56%.
With `Cc1nn(CC(=O)OC(C)C(=O)Nc2ccccc2[N+](=O)[O-])c(C)c1[N+](=O)[O-]` (centres unmarked), the “hERG current change (%, negative = inhibition) at 1uM” value is given as -2%.
For `Cc1cccc2c(SCC(N)=O)nc(-c3ccccc3)nc12`, the “hERG current change (%, negative = inhibition) at 1uM” value is 6.86%.
The value for `Cc1ccc(S(=O)(=O)NCCC(=O)OCC(=O)Nc2ccccc2Cl)cc1` was 15.8%.
The value for `O=C1C(=O)N(CC(=O)N2CCCC2)c2ccccc21` was 8.34%.
Take `O=C(COC(=O)CCOc1ccccc1)Nc1cc(S(=O)(=O)N2CCCCC2)ccc1Cl`: the “hERG current change (%, negative = inhibition) at 1uM” value is -0.399%.
In the case of `O=C(NCC1CCCO1)c1cc2cc(Cl)ccc2[nH]1` (centres unmarked), the “hERG current change (%, negative = inhibition) at 1uM” value is 15.1%.
As for `CCOc1ccc(CCNC(=O)CCc2nnc3ccc(N4CCCC4)nn23)cc1OCC`, the “hERG current change (%, negative = inhibition) at 1uM” value is reported as 1.7%.
As to `CCc1ccc(-c2cc(C(F)(F)F)n3nc(C(=O)Nc4c(C)nn(Cc5ccccc5C)c4C)cc3n2)s1`, the “hERG current change (%, negative = inhibition) at 1uM” value is given as 6.45%.
The value for `O=C(CSc1nnc(C2CC2)n1Cc1ccccc1)Nc1cccnc1Cl` was 12.1%; that for `COc1ccc(-c2c(-c3ccccc3OC)oc3ccccc23)cc1F` was 8.13%.

The values above are taken from PMC4336329 (PLoS ONE, 2015).
